Results as given in PubChem BioAssay AID1508642 (National Center for Advancing Translational Sciences (NCATS), 2021).
Among all 43,000 compounds or so, about 200 (0.47%) were called active. Inconclusive results (about 12%) are left out. The call rests on the fitted dose curve; in most records, active means well fitted cell-killing curve with a large enough effect; inconclusive means small, poorly fitted or top-dose-only effect, or effect the other way; inactive means flat fitted curve, though single readings scatter. This is one part of the list.

Assay: Cell viability qHTS assay in S16 Pmp22-F2sN cells; further: nearly all actives have a fitted effect of over 65% in size
Settings: S16 Pmp22-F2sN Schwann cells (luciferase reporters placed in the Pmp22 gene) viability, CellTiter-Glo, 24 h; series mostly up to 57.5 µM; activity change, negative = cytotoxicity: at the top concentration
How it was run: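 Luminescence from CellTiter-Glo, read by CCD camera after a 15 min room-temperature incubation, served as the viability signal. Reporter Schwann cells (S16 Pmp22-F2sN) had been treated with pin-transferred compounds for 24 h at 37C.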
On the % scale 0 is the no-effect control and ±100 the full control effect.

Row | Compound | activity change, negative = cytotoxicity
1 | COc1ccc(C(CC(=O)Nc2ncccc2C)N2Cc3ccccc3C2=O)cc1OC (stereo unspecified) | inactive: -1.91%
2 | COc1ccc(-n2c(SCCC(C)C)nc3sc4c(c3c2=O)CC(C(C)C)OC4)cc1 (stereo unspecified) | inactive: 10.3%
3 | Cc1nn(CCCC(=O)Nc2ccccc2C(F)(F)F)c(=O)c2nn(-c3ccccc3)c(C)c12 | inactive: -0.598%
4 | COc1cccc(NC(=O)Cn2c(=O)n(Cc3ccc4c(c3)OCO4)c(=O)c3oc4ccccc4c32)c1 | inactive: -10.4%
5 | Cc1ccc(-n2ncc(C(=O)NCCN3CCN(C)CC3)c2C2CCN(C(=O)OC(C)(C)C)CC2)cc1C | inactive: -8.53%
6 | COc1ccc2c(c1)c(N1CCCC1=O)c(C(=O)Nc1ccc(OC)c(Cl)c1)n2C | inactive: 4.75%
7 | CCOc1ccc(CNC(=O)Cn2c(=O)c3cccn3c3cccnc32)cc1 | inactive: 12.3%
8 | Cc1ccc(-c2noc(CNC(=O)c3ccc(C)c(Cl)c3)n2)cc1 | inactive: -16.1%
9 | CCc1ccc(OCC(=O)N(Cc2ccc(C(C)C)cc2)C2CCS(=O)(=O)C2)cc1 (stereo unspecified) | inactive: -23.9%
10 | CCN(CC)C(=O)C1=C(C)Nc2nc3ccccc3n2C1c1cccc(OC)c1 (stereo unspecified) | inactive: 5.17%
11 | O=C(Nc1ccccc1C(F)(F)F)c1ccc(F)c(S(=O)(=O)N2CCc3ccccc3C2)c1 | inactive: -20.1%
12 | Cc1ccc(-n2c(C)cc(/C=C(\C#N)C(=O)Nc3ccc(C)c(C)c3)c2C)cc1 | inactive: -1.23%
13 | N#Cc1ccccc1CSc1nnc(-c2ccc(Br)cc2)o1 | inactive: 5.6%
14 | Cc1ccc(CNC(=O)Cn2ccn(-c3cccc(Cl)c3)c(=O)c2=O)cc1 | inactive: 5.41%
15 | O=C1CSC2(C(=O)N(Cc3cccc(C(F)(F)F)c3)c3ccccc32)N1c1ccc(F)c(F)c1 (stereo unspecified) | inactive: 7.73%
16 | O=C(NCc1ccccc1Cl)c1nnc(Cc2cccc(F)c2)o1 | inactive: 6.62%
17 | Cc1ccc2oc(-c3ccc(C)c(NC(=O)/C=C/c4ccco4)c3)nc2c1 | inactive: 4.5%
18 | Cc1ccc(-c2nc(CSc3nnc(C)n4c3cc3occc34)c(C)o2)cc1 | inactive: 6.43%
19 | Cc1ccc(NC(=O)CN(Cc2ccccc2)S(=O)(=O)c2ccc3nc(C)sc3c2)c(C)c1 | inactive: 9.72%
20 | CCCCSc1nnc2c(n1)OC(c1ccc(Br)s1)Nc1ccccc1-2 (stereo unspecified) | inactive: -9.31%
21 | Cc1cc(N2CCC(C)CC2)nc2ccc(NC(=O)Cc3ccccc3Br)cc12 | inactive: 24.9%
22 | CCOc1ccc(-c2nc(-c3ccccc3)c(-c3ccccc3)[nH]2)cc1OCC | inactive: -8.14%
23 | CN(C)c1ccc(CNC(=O)CCCN2C(=O)c3cccnc3Oc3ccc(Cl)cc32)cc1 | inactive: 5.45%
24 | COc1ccc(CNC(=O)c2c(O)nc3c(C)cccn3c2=O)cc1 | inactive: -14.2%

Row | Compound | activity change, negative = cytotoxicity
25 | CCCCOC(=O)c1ccc(-n2nnc3c(sc4nc(C)cc(C)c43)c2=O)cc1 | inactive: 17.4%
26 | CCc1ccc(C2CC(=O)Nc3c2c(=O)n(C)c2ncnn32)cc1 (stereo unspecified) | inactive: -3.56%
27 | COc1ccc(C(=O)c2cn(CC(=O)Nc3cc(C)ccc3C)c3nc(C)ccc3c2=O)cc1 | inactive: -0.858%
28 | CC(C)Oc1ccc(CNC(=O)C2=Cc3ccccc3OC2)cc1 | inactive: 3.93%
29 | CCOC(=O)N[C@H](Cc1c[nH]c2ccccc12)C(=O)Nc1cccc(Cl)c1 | inactive: -0.604%
30 | NC(=O)C1CCN(c2csc3ccc(F)cc3c2=O)CC1 | inactive: -5.72%
31 | COc1ccc(N2CCN(C(CNC(=O)c3ccc(OC)c(OC)c3)c3cccnc3)CC2)cc1 (stereo unspecified) | inactive: 3.28%
32 | CCc1ccc(CNC(=O)C2CCN(c3nn4cc(-c5ccc(OC)cc5)nc4s3)CC2)cc1 | inactive: 7.23%
33 | COc1ccc(C2=NC(c3ccccc3)=Nc3ccc(C)cc3N2)cc1 | inactive: -14.6%
34 | CCC(C)NC(=O)c1c2c(nc3ccccc13)C(=O)N(C1CCCCC1)C2 (stereo unspecified) | inactive: 16.9%
35 | CCOC(=O)c1cc(S(=O)(=O)Nc2ccccc2)[nH]n1 | inactive: 3.57%
36 | O=C(CSc1n[nH]c(-c2ccc(F)cc2)n1)N1CCN(c2ccc(F)cc2)CC1 | inactive: -0.308%
37 | CN1CCN(C(=O)c2ccc3c(c2)N(Cc2ccc(F)cc2)C(=O)c2ccccc2S3(=O)=O)CC1 | inactive: -3.81%
38 | COc1ccc(NC(=O)CSc2nnc(-c3ccncc3)n2-c2ccccc2)cc1 | inactive: -1.73%
39 | CCn1c(SCC(=O)Nc2cc(C)ccc2F)nnc1-c1ccccc1O | inactive: 6.11%
40 | COc1ccc(N2CC(NC(=O)C3CCCCC3)CC2=O)cc1 (stereo unspecified) | inactive: 19.5%
41 | CCN(c1ccc(OC)cc1)S(=O)(=O)c1ccc2[nH]c3c(c2c1)CCCCC3 | inactive: -14%
42 | NC(=O)c1cc(S(=O)(=O)NCc2cccc(Br)c2)cs1 | inactive: 9.71%
43 | COC(=O)c1ccc(NC(=O)Cn2c(=O)oc3ccccc32)cc1 | inactive: 7.52%
44 | Cc1ccc(CNC(=O)c2ccc3c(c2)CCN3S(=O)(=O)c2ccc(Br)cc2)cc1 | inactive: 1.69%
45 | COc1ccc(C2CC(=O)c3cc(-c4nc(-c5cccc([N+](=O)[O-])c5)cs4)c(=O)n(-c4ccccc4N)c3C2)cc1 (stereo unspecified) | inactive: 6.22%
46 | CC(=O)c1ccc(NC(=O)C2CCN(S(=O)(=O)c3ccc4[nH]c5c(c4c3)CCCCC5)CC2)cc1 | inactive: 8.02%
47 | Cc1ccccc1CNC(=O)Cn1c(=O)c2cccn2c2cccnc21 | inactive: 18.7%
48 | COc1ccccc1CNC(=O)c1ccc(N2CCCC2)c(NC(=O)NCc2ccc(C)cc2)c1 | inactive: 5.49%

Row | Compound | activity change, negative = cytotoxicity
49 | CCCOc1ccc(C2c3c(oc4ccccc4c3=O)C(=O)N2c2nnc(C(C)C)s2)cc1 (stereo unspecified) | inactive: 4.91%
50 | CCOC(=O)CNC(=O)N1CCN(S(=O)(=O)c2ccc3c(ccn3C)c2)CC1 | inactive: 2.51%
51 | COc1ccc(CC(=O)N2CC(=O)Nc3ccc(F)cc3C2c2ccccc2)cc1 (stereo unspecified) | inactive: 6.71%
52 | Cc1ccc(-c2cn3nc(N4CCCC(C(=O)NCc5ccccc5F)C4)sc3n2)cc1 (stereo unspecified) | inactive: 0.324%
53 | Cc1ccc(Cn2nc3n(c2=O)-c2cc(Cl)ccc2OC3)cc1 | inactive: 3.06%
54 | Cc1ccc(-c2csc(-c3c(N)c(C(=O)c4ccc5c(c4)OCO5)n4ccccc34)n2)cc1 | inactive: -15.6%
55 | COc1ccc(C(=O)c2cn(CC(=O)Nc3cc(OC)cc(OC)c3)c3ccc(OC)cc3c2=O)cc1 | inactive: -3.36%
56 | Cc1cccc(N(C)C(=O)Cn2c(=O)oc3cc(S(=O)(=O)N4CCCCC4)ccc32)c1 | inactive: -3.72%
57 | COc1ccc(-c2nc3ccccc3o2)cc1NC(=O)Cc1ccc(Cl)cc1 | inactive: 0.203%
58 | Cn1ccnc1SCC(=O)Nc1cccc(Br)c1 | inactive: 16%
59 | CCOC(=O)c1c(S(=O)(=O)N2CCC(C(=O)NCc3cccc(OC)c3)CC2)c(C)n(C)c1C | inactive: 12.8%
60 | Cc1c(Cl)cccc1NC(=O)C(=O)NCCc1csc(-c2ccc(C(F)(F)F)cc2)n1 | inactive: 2.83%
61 | Cc1ccccc1Cn1c(CN2CCC(C(=O)NCc3ccc(Cl)cc3)CC2)cc2ccccc21 | inactive: 0.933%
62 | CCCCN(C)C(=O)c1ccc2c(=O)n3nc(Nc4cc(C)ccc4C)sc3nc2c1 | inactive: -16.7%
63 | O=S1(=O)c2ccccc2N(Cc2ccccc2F)c2ccccc21 | inactive: -0.82%
64 | O=C(CNC(=O)c1ccc(F)cc1)OCc1cc(=O)n2ccsc2n1 | inactive: 16.7%
65 | COc1ccc(C(=O)Nc2ccc3oc(-c4cccc5c(Br)cccc45)nc3c2)cc1 | inactive: -3.36%
66 | Cc1cc(C)cc(NC(=O)COc2cccc3c(=O)n(C)ccc23)c1 | inactive: 1.62%
67 | COc1ccc(CCNC(=O)c2ccc(-n3c(C)cc4c3CCC(C)C4)cc2)cc1OC (stereo unspecified) | inactive: -2.65%
68 | Cc1cc(C)c(OCC(=O)N(Cc2ccc(N(C)C)cc2)Cc2ccco2)c(C)c1 | inactive: -11.4%
69 | O=C(NCc1ccc2c(c1)OCO2)c1ccc2c(c1)N(Cc1c(F)cccc1Cl)C(=O)c1ccccc1S2 | inactive: -2.98%
70 | CCOC(=O)c1sc2ncn(CC(=O)Nc3ccc(OC)c(Cl)c3)c(=O)c2c1C | inactive: 0.881%
71 | COc1ccc(-c2nc3sc(CCNC(=O)C(=O)Nc4ccc(OC)c(OC)c4)c(C)n3n2)cc1 | inactive: 4.27%
72 | CC(C)CCNC(=O)Cn1nc(N2CCN(c3ccccc3)CC2)ccc1=O | inactive: 1.73%

Row | Compound | activity change, negative = cytotoxicity
73 | COc1ccc(Br)cc1Cn1nnc(C(=O)Nc2cccc(SC)c2)c1N | inactive: -16.9%
74 | Cc1ccccc1Cn1c2ccccc2c2cnn(CC(=O)NC3CCCCCC3)c(=O)c21 | inactive: -5.66%
75 | O=C(CSc1nc2ccccc2n1Cc1cccc(F)c1)NCc1ccccc1 | inactive: 7.38%
76 | CSc1cccc(NC(=O)c2cc3c(COC(C)=O)cnc(C)c3oc2=O)c1 | inactive: 9.06%
77 | O=C(CC(c1cccs1)N1Cc2ccccc2C1=O)Nc1ccc(F)cc1 (stereo unspecified) | inactive: -1%
78 | COc1ccc(S(=O)(=O)NCc2nc(-c3ccccc3)no2)cc1 | inactive: 3.6%
79 | COc1ccc(OC)c(C2C(C(=O)Nc3ccc(C)cc3)=C(C)Nc3nnnn32)c1 (stereo unspecified) | inactive: 20.1%
80 | Cc1ccc(NC(=O)c2ccc(CN3CC(=O)N4CCCCC4C3=O)cc2)c(Cl)c1 (stereo unspecified) | inactive: 0.056%
81 | CN(CC(=O)Nc1cccc(F)c1)S(=O)(=O)c1ccc2c(c1)n(C)c(=O)c(=O)n2C | inactive: -21.8%
82 | COc1ccc(Cn2ccc3nc(C)c(C(=O)NCc4ccc(SC)cc4)cc3c2=O)cc1 | inactive: -0.515%
83 | Cc1ccccc1NC(=O)Cn1nc(-c2ccccc2)nc(Cc2ccccc2)c1=O | inactive: 1.86%
84 | Cc1ccc(CNS(=O)(=O)c2cnc(N)nc2)cc1 | inactive: 0.912%
85 | O=C(c1cc2c(Cl)nc3ccccc3c2s1)N1CCCCC1 | inactive: -9.73%
86 | Oc1ccc(-c2nc3ccc(Cl)cn3c2Nc2ccc(Cl)cc2)cc1 | inactive: 12.2%
87 | COc1ccc(CNC(=O)CSc2nnc(C)c3c(C)n(-c4ccccc4)nc23)c(OC)c1 | inactive: -16.3%
88 | CCc1ccc2ncc3c(-c4ccc(C)cc4)nn(CC(=O)NCc4ccccc4)c3c2c1 | inactive: 1.09%
89 | Cc1cc(C)cc(N(CC(=O)NCCc2ccc(Cl)cc2)S(=O)(=O)c2c(C)noc2C)c1 | inactive: 7.83%
90 | Cc1ccc2c(c1)c1c(c(=O)n(-c3ccccc3)c(=O)n1Cc1ccccc1C)n2C | inactive: 9.57%
91 | CN1CCN(C(=O)c2cnn(-c3ccc(F)cc3F)c2C2CCN(C(=O)OC(C)(C)C)CC2)CC1 | inactive: 7.83%
92 | COc1ccc(NC(=O)Nc2nnc(N3CCCC3)s2)cc1 | inactive: -1.59%
93 | CCC(=O)N1c2ccccc2CC1C(=O)NCc1ccc(CC)cc1 (stereo unspecified) | inactive: 9.63%
94 | Cc1ccc2c(=O)cc(C(=O)N(Cc3ccc(C(C)(C)C)cc3)C3CCS(=O)(=O)C3)oc2c1 (stereo unspecified) | inactive: -4.55%
95 | COC(=O)c1ccc(NC(=O)c2cc(S(=O)(=O)N3CCOCC3)cn2C)cc1 | inactive: 12.9%
96 | Cc1ccccc1OCC(=O)Nc1ccc(S(=O)(=O)N(Cc2ccccc2)c2ccccc2)cc1 | inactive: -5.24%
